The source of these data is the supplement of paper PMC8821664.

Structures can show the parent of a compound that is named as a salt. This is one part of the list. Repeats are few or missing, and single values can be far off. Starred links: 1 amine or outer side, 2 acyl side, 3 side chain; linkers in the order of their positions; H or OH if unused. Positions of bridges follow the written chain, without caps; N, C: chain ends. Non-standard residues stand in square brackets, D forms with d. Residues, ends and D or L forms follow the SMILES beside them. *: point of attachment. hTyr(3S-OH,4S-OH,3'-OSO3H) = N[C@H](C(=O)O)[C@H](O)[C@@H](O)c1ccc(O)c(OS(=O)(=O)O)c1; Orn(4R-OH,5R-OH) = O=C([C@H](C[C@@H](O)[C@@H](O)N[*:3])N[*:1])[*:2]; Pro(3S-OH,4S-Me) = C[C@H]1CN[C@H](C(=O)O)[C@H]1O; X2 = CCCCCOc1ccc(-c2cc(-c3ccc(C(=O)*)cc3)no2)cc1; Gln(3R-OH) = NC(=O)C[C@@H](O)[C@H](N)C(=O)O; Hyp = O=C(O)[C@@H]1C[C@@H](O)CN1
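Further: monoclonal Beas-2B line stably carrying CMV promoter-driven AQP5-HiBiT, 5,000 cells per well in 384-well plates, lytic HiBiT plus LgBiT NanoLuc luminescence, FDA-approved drug library screen.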

In this assay the test system is Beas-2B AQP5-HiBiT reporter cells. The experiment in a line: AQP5-HiBiT luminescence relative to vehicle (ratio to vehicle); higher = higher AQP5-HiBiT protein abundance. Particulars: 10 µM; 18 h.
For the compound `OCCN1C[C@H](O)[C@@H](O)[C@H](O)[C@H]1CO` [Miglitol], the AQP5-HiBiT luminescence is 0.902.

Turning to `Cn1nnc2c(C(N)=O)ncn2c1=O` [Temozolomide], the AQP5-HiBiT luminescence turned out to be 1.35.

Regarding `NCCC(O)(P(=O)(O)O)P(=O)(O)O` [Pamidronate disodium salt], the AQP5-HiBiT luminescence was determined as 0.907.

As for `Cc1nc2n(c(=O)c1CCN1CCC(c3noc4cc(F)ccc34)CC1)CCCC2O` (stereo unspecified) [Paliperidone], the AQP5-HiBiT luminescence was 1.18.

Regarding `Cn1c(=O)c2nc[nH]c2n(C)c1=O` [Theophylline], the AQP5-HiBiT luminescence is 0.816.

With `C[C@]12CC[C@@H]3c4ccc(O)cc4CC[C@H]3[C@@H]1CCC2=O` [Aquacrine], the AQP5-HiBiT luminescence came to 0.586.

With `Nc1nc(F)nc2c1ncn2[C@@H]1O[C@H](CO)[C@@H](O)[C@@H]1O` [Fludarabine], the AQP5-HiBiT luminescence was 1.04.

As for `CN(C)CCn1nnnc1SCC1=C(C(=O)O)N2C(=O)[C@@H](NC(=O)Cc3csc(N)n3)[C@H]2SC1` [Cefotiam hydrochloride], the AQP5-HiBiT luminescence was found to be 0.77.

For `CCCC(=O)O[C@]1(C(=O)CO)CC[C@H]2[C@@H]3CCC4=CC(=O)CC[C@]4(C)[C@H]3[C@@H](O)C[C@@]21C` [Hydrocortisone butyrate], the AQP5-HiBiT luminescence amounted to 0.77.

`c1ccc(CC2=NCCN2)cc1` [Tolazoline hydrochloride]: the AQP5-HiBiT luminescence was 0.895.

In the case of `O.O.O.O.O=C([O-])CC(O)(CC(=O)[O-])C(=O)[O-].[Li+].[Li+].[Li+]` [Lithium citrate tribasic tetrahydrate], the AQP5-HiBiT luminescence turned out to be 0.841.

With `CNC(C)C1CCC(N)C(OC2C(N)CC(N)C(OC3OCC(C)(O)C(NC)C3O)C2O)O1` (stereo unspecified) [Gentamycin sulfate], the AQP5-HiBiT luminescence turned out to be 0.512.

Consider `CN(C)C/C=C/C(=O)Nc1cc2c(Nc3ccc(F)c(Cl)c3)ncnc2cc1O[C@H]1CCOC1` [Afatinib (BIBW2992) Dimaleate], for which the AQP5-HiBiT luminescence worked out at 1.61.

Consider `CC(=O)N[C@@H](CS)C(=O)O` [Acetylcysteine], for which the AQP5-HiBiT luminescence came to 0.854.

Take `OCCN(CCO)c1nc(N2CCCCC2)c2nc(N(CCO)CCO)nc(N3CCCCC3)c2n1` [Dypyridamole]: the AQP5-HiBiT luminescence was determined as 0.718.

In the case of `Nc1nc2c(ncn2COCCO)c(=O)[nH]1` [Aciclovir], the AQP5-HiBiT luminescence was determined as 1.02.

Turning to `OC(c1cc(C(F)(F)F)nc2c(C(F)(F)F)cccc12)C1CCCCN1` (stereo unspecified) [Mefloquine hydrochloride], the AQP5-HiBiT luminescence was 1.16.

For `CCCCCOc1ccc(-c2cc(-c3ccc(C(=O)N[C@H]4C[C@@H](O)[C@@H](O)NC(=O)[C@@H]5[C@@H](O)[C@@H](C)CN5C(=O)[C@H]([C@H](O)CC(N)=O)NC(=O)[C@H]([C@H](O)[C@@H](O)c5ccc(O)c(OS(=O)(=O)O)c5)NC(=O)[C@@H]5C[C@@H](O)CN5C(=O)[C@H]([C@@H](C)O)NC4=O)cc3)no2)cc1` [Micafungin sodium] (X2-[Orn(4R-OH,5R-OH)]T[Hyp][hTyr(3S-OH,4S-OH,3'-OSO3H)][Gln(3R-OH)][Pro(3S-OH,4S-Me)]; lactam 1-C), the AQP5-HiBiT luminescence was determined as 0.981.

As for `O=C(CCCCCCC(=O)Nc1ccccc1)NO` [Vorinostat (SAHA, MK0683)], the AQP5-HiBiT luminescence was found to be 1.19.

For `CCn1cc(C(=O)O)c(=O)c2cc(F)c(N3CCNC(C)C3)c(F)c21` (stereo unspecified) [Lomefloxacin hydrochloride], the AQP5-HiBiT luminescence is 0.992.

As to `CC(C)OC(=O)CCC/C=C\C[C@@H]1[C@@H](CC[C@@H](O)CCc2ccccc2)[C@H](O)C[C@@H]1O` [Latanoprost], the AQP5-HiBiT luminescence worked out at 0.794.

Regarding `CC=CC(=O)N(CC)c1ccccc1C` [Crotamiton], the AQP5-HiBiT luminescence was 1.03.

As to `C#C[C@]1(O)CC[C@H]2[C@@H]3CCC4=CC(=O)CC[C@@H]4[C@H]3CC[C@@]21C` [Norethindrone], the AQP5-HiBiT luminescence was 1.07.

With `CCCc1nc(C)c2c(=O)nc(-c3cc(S(=O)(=O)N4CCN(CC)CC4)ccc3OCC)[nH]n12` [Vardenafil hydrochloride Trihydrate], the AQP5-HiBiT luminescence came out at 1.06.

For `OCCN1CCN(CCCN2c3ccccc3Sc3ccc(C(F)(F)F)cc32)CC1` [Fluphenazine hydrochloride], the AQP5-HiBiT luminescence is 1.32.

With `C[Se]CC[C@H](N)C(=O)O` [Selenomethionine], the AQP5-HiBiT luminescence was found to be 0.712.

Regarding `COC(=O)Nc1nc2cc(C(=O)c3ccccc3)ccc2[nH]1` [Mebendazole], the AQP5-HiBiT luminescence was 2.54.

Turning to `CC(c1cc2ccccc2s1)N(O)C(N)=O` (stereo unspecified) [Zileuton], the AQP5-HiBiT luminescence was 1.16.

Regarding `Clc1ccc(COC(Cn2ccnc2)c2ccc(Cl)cc2Cl)c(Cl)c1` (stereo unspecified) [Miconazole], the AQP5-HiBiT luminescence worked out at 0.837.

Regarding `Nc1ncnc2c1ncn2[C@@H]1O[C@H](CO)[C@@H](O)[C@@H]1O` [Vidarabine], the AQP5-HiBiT luminescence was determined as 0.729.

In the case of `NC(=O)CCC(N)C(=O)O` (racemic) [DL-Glutamine], the AQP5-HiBiT luminescence was determined as 0.875.
